The other results are listed elsewhere or left out. The data describe in vitro nicking of single-stranded DNA by Rep domains (1 h at 37 °C, 3 µM enzyme); the outer parts of the 90-letter strands are left off. Uncut reads are compared with the no-enzyme pool on a log2 scale; strong cutting gives strongly negative numbers. There is no active / inactive call. Reads are scaled to the total; values above 0 arise when much of the pool is cut.
test system: T1, Rep nickase domain of tomato golden mosaic virus; test: uncleaved DNA left, log2 of reads against the no-enzyme library (log2 ratio); higher = less cleavage (more negative = more Rep cleavage of the k-mer); sequences stand for … in CTCGTCCG…ACCGGAGA
T1 sequence (residues 1-124 of Rep, tag left off): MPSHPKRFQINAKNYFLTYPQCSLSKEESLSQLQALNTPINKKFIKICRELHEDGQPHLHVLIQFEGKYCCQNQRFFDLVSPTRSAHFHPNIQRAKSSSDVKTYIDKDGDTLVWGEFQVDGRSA
Experimental: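 A pool of 90-nt single-stranded DNAs with seven random bases just before the constant AC of the nick site (name = the seven bases) was cut by 3 µM recombinant His6-SUMO-tagged Rep nickase domain (300 nM DNA, 50 mM HEPES pH 8.0, 50 mM NaCl, 1 mM MnCl2, 1 h, 37 °C, three replicates). Uncut DNA was amplified and sequenced.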

| Sequence | uncleaved DNA left (log2) |
| --- | --- |
| GTATAAC | 0.104 |
| CGCGCGG | 0.0677 |
| ATAGACG | 0.0221 |
| AGGTGAC | -0.0497 |
| GCAGCAC | 0.0498 |
| TCCCCGC | -0.0888 |
| TAACGAA | -0.114 |
| GGGTGGC | 0.0246 |
| GGAGTAG | -0.0366 |
| CAGTAGG | -0.0358 |
| TATCGGC | 0.0546 |
| AACGCGC | -0.0304 |
| AGGCGAG | 0.0158 |
| GCCGATC | 0.0631 |
| CTGCAGC | -0.017 |
| AATTCTT | -0.553 |
| TGCAGCC | -0.136 |
| GGATACT | 0.0127 |
| CGAGGTC | 0.215 |
| CTACTTG | -0.25 |

| Sequence | uncleaved DNA left (log2) |
| --- | --- |
| TCTCTAG | 0.0675 |
| TGAGCGG | 0.141 |
| CGCGTGG | 0.000313 |
| CTGAGGC | -0.153 |
| CCCCAAT | -0.119 |
| CGCCGAT | -0.00125 |
| AAAAGCT | -0.0275 |
| TTCGCAC | -0.0964 |
| ATTGGGG | 0.189 |
| TCTCCGT | -0.113 |
| TGCACAT | -0.035 |
| CGTACGA | -0.112 |
| TGAAAAG | -0.0213 |
| TATCGGA | 0.0904 |
| AGCGGTT | -0.0625 |
| AATATTG | 0.087 |
| TTACGGT | 0.103 |
| GGGGAAT | 0.165 |
| CTACGGT | 0.108 |
| ATCAGAT | 0.109 |
